Here are results for 14 compounds from PubChem BioAssay (NCI).

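All cell lines were grown in 96-well plates and treated with compound for 48 hours. GI50 marks 50% less growth. TGI marks complete inhibition of growth.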

This experiment relates to NCI-H322M lung. In words: DTP human tumour cell line panel, 48 h.
As a reminder, the TGI is the concentration at which net growth stops. `Clc1ccc(C(Cc2cccc(Cl)c2)c2c(Cl)nc(N3CCNCC3)nc2Cl)cc1` (centres undefined) showed a TGI of 30.5 µM.
For the compound `Cc1ccc([N+](=O)[O-])cc1S(=O)(=O)Nc1ccc(C2=NOC(c3cccs3)C2)cc1` (centres undefined), the concentration for total growth inhibition (TGI) amounted to 89 µM.
As a reminder, the GI50 is the concentration giving 50% growth inhibition. `N#Cc1c(N2CCOCC2)nc(=S)[nH]c1-c1ccccc1`: the GI50 is 15.4 µM and the TGI is above 100 µM.
`CCOC(=O)CCSc1nc2ccc(I)cc2c(=O)n1Cc1ccccc1` showed a concentration for total growth inhibition (TGI) above 100 µM.
As to `CCCCCCCCC/C(=N\NC(=O)c1ccncc1)c1ccc(O)c(O)c1O`, the 50% growth inhibitory concentration (GI50) was 0.105 µM and the concentration for total growth inhibition (TGI) is above 50.7 µM.
With `COc1ccc(-c2cc(-c3ccc(O)cc3O)c(C#N)c(=O)[nH]2)cc1`, the TGI turned out to be 84.1 µM.
Turning to `COc1ccc(Cn2cc3c(c2-c2ccccc2)CCc2cnoc2-3)cc1OC`, the GI50 is 9.74 µM and the total growth inhibition concentration (TGI) was above 100 µM.
The compound `CCCNCC(=O)O[C@]1(CC)C(=O)OCc2c1cc1n(c2=O)Cc2cc3ccccc3nc2-1` came in with a TGI of 5.85 µM.
Compound `Cc1cc(C)n(-c2ccnc3cc(Cl)ccc23)n1` yielded a concentration for total growth inhibition (TGI) above 100 µM.
The compound `Cc1c2c(OCC(O)CN3CCN(c4ccccc4)CC3)nn(C)c(=O)c2c(C)n1-c1ccccc1` (centres undefined) gave a TGI above 100 µM.
The same measure, in the same setting: with `N=N/C(=C\c1c(O)[nH]c2ccccc12)c1ccccc1` the figure was above 100 µM.
For the compound `CCOC(=O)Nc1nc2ccc(Br)cc2s1`, the GI50 was above 50 µM and the TGI was above 50 µM.
Consider `O=[N+]([O-])c1ccc(C2=Nn3c(nnc3-c3ccc(Cl)cc3)SC2)o1`, for which the TGI was determined as 28.3 µM.
With `Clc1ccc(Nc2ccnc(N3CCN(c4ccnc5cc(Cl)ccc45)CC3)n2)cc1`, the GI50 was 6.6 µM and the concentration for total growth inhibition (TGI) is above 100 µM.
